Laboratory results reported in PMC12820563, “FoxP3 forms a head-to-head dimer in vivo and stabilizes its multimerization on adjacent microsatellites”.
The list shows a part of the results.

Molecular target: T1, MBP-FoxP1dN (Mus musculus, UniProt P58462 326-579)
T1 sequence: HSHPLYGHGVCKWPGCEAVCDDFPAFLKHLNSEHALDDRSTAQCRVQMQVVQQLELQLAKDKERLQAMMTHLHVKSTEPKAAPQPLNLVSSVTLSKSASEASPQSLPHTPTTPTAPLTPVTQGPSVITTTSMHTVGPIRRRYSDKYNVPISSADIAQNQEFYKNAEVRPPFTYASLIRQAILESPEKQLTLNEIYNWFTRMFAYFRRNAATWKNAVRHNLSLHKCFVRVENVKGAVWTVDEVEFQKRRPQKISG
Assay: PD-seq (MBP pull-down with sequencing); 20 mM Tris-HCl pH 7.5, 100 mM NaCl, 1.5 mM MgCl2, 0.4 uM protein, 0.1 uM dsDNA library, 30 min, room temperature, amylose pull-down; high values mean tight binding
Settings: protein: recombinant; tags: His6-MBP; chain copies: 2; dsDNA, one strand shown
Summary of the method: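 Binding is reads-per-million enrichment of pull-down over input, with replicates pooled. It comes from 30 min room-temperature incubation in Tris pH 7.5 buffer with NaCl and MgCl2 of 0.4 µM His6-MBP-tagged, N-terminally truncated mouse FoxP3 or FoxP1 fragment from E. coli with 0.1 µM Klenow-filled degenerate double-stranded DNA library, followed by amylose resin capture, three washes and Illumina sequencing of the released DNA.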

Sequence	binding signal
GATGATTGTTCTCCCAGCTGATGAATTAGTGGCGTCGAGTAAACAAATTTTCCTAATCTTTCTGTTCAAGCGCCATCTAC	0.994 RPM ratio (pull-down/input)
GATGATTGTTCTCCCAGCTGATGAATTACCGACGTCGAGTAAACAAATTTTCCTAATCTTTCTGTTCAAGCGCCATCTAC	0.917 RPM ratio (pull-down/input)
GATGATTGTTCTCCCAGCTGATGAATTGGGGTATTCGAGTAAACAAATTTTCCTAATCTTTCTGTTCAAGCGCCATCTAC	0.899 RPM ratio (pull-down/input)
GATGATTGTTCTCCCAGCTGATGAATTACCTACCTCGAGTAAACAAATTTTCCTAATCTTTCTGTTCAAGCGCCATCTAC	0.913 RPM ratio (pull-down/input)
GATGATTGTTCTCCCAGCTGATGAATTTGGCTCATCGAGTAAACAAATTTTCCTAATCTTTCTGTTCAAGCGCCATCTAC	0.876 RPM ratio (pull-down/input)
GATGATTGTTCTCCCAGCTGATGAATTTGCCGCATCGAGTAAACAAATTTTCCTAATCTTTCTGTTCAAGCGCCATCTAC	1.12 RPM ratio (pull-down/input)
GATGATTGTTCTCCCAGCTGATGAATTTCATGAGTCGAGTAAACAAATTTTCCTAATCTTTCTGTTCAAGCGCCATCTAC	0.825 RPM ratio (pull-down/input)
GATGATTGTTCTCCCAGCTGATGAATTTAACGGGTCGAGTAAACAAATTTTCCTAATCTTTCTGTTCAAGCGCCATCTAC	0.906 RPM ratio (pull-down/input)
GATGATTGTTCTCCCAGCTGATGAATTATGTTTTTCGAGTAAACAAATTTTCCTAATCTTTCTGTTCAAGCGCCATCTAC	2.19 RPM ratio (pull-down/input)
GATGATTGTTCTCCCAGCTGATGAATTGGTGGATTCGAGTAAACAAATTTTCCTAATCTTTCTGTTCAAGCGCCATCTAC	0.975 RPM ratio (pull-down/input)
GATGATTGTTCTCCCAGCTGATGAATTGCTGTAGTCGAGTAAACAAATTTTCCTAATCTTTCTGTTCAAGCGCCATCTAC	1.2 RPM ratio (pull-down/input)
GATGATTGTTCTCCCAGCTGATGAATTTGGGTTCTCGAGTAAACAAATTTTCCTAATCTTTCTGTTCAAGCGCCATCTAC	0.83 RPM ratio (pull-down/input)
GATGATTGTTCTCCCAGCTGATGAATTACTACATTCGAGTAAACAAATTTTCCTAATCTTTCTGTTCAAGCGCCATCTAC	1.27 RPM ratio (pull-down/input)
GATGATTGTTCTCCCAGCTGATGAATTCCTCACGTCGAGTAAACAAATTTTCCTAATCTTTCTGTTCAAGCGCCATCTAC	0.918 RPM ratio (pull-down/input)
GATGATTGTTCTCCCAGCTGATGAATTGGTCTTCTCGAGTAAACAAATTTTCCTAATCTTTCTGTTCAAGCGCCATCTAC	0.855 RPM ratio (pull-down/input)
GATGATTGTTCTCCCAGCTGATGAATTAAAGAAGTCGAGTAAACAAATTTTCCTAATCTTTCTGTTCAAGCGCCATCTAC	0.84 RPM ratio (pull-down/input)
GATGATTGTTCTCCCAGCTGATGAATTCGCGCCATCGAGTAAACAAATTTTCCTAATCTTTCTGTTCAAGCGCCATCTAC	0.994 RPM ratio (pull-down/input)
GATGATTGTTCTCCCAGCTGATGAATTAGGCCGGTCGAGTAAACAAATTTTCCTAATCTTTCTGTTCAAGCGCCATCTAC	0.777 RPM ratio (pull-down/input)
GATGATTGTTCTCCCAGCTGATGAATTATACAGGTCGAGTAAACAAATTTTCCTAATCTTTCTGTTCAAGCGCCATCTAC	1.06 RPM ratio (pull-down/input)
GATGATTGTTCTCCCAGCTGATGAATTACGCGCTTCGAGTAAACAAATTTTCCTAATCTTTCTGTTCAAGCGCCATCTAC	1.04 RPM ratio (pull-down/input)
GATGATTGTTCTCCCAGCTGATGAATTTTGCCCCTCGAGTAAACAAATTTTCCTAATCTTTCTGTTCAAGCGCCATCTAC	0.878 RPM ratio (pull-down/input)

Sequence	binding signal
GATGATTGTTCTCCCAGCTGATGAATTAGGTATATCGAGTAAACAAATTTTCCTAATCTTTCTGTTCAAGCGCCATCTAC	0.972 RPM ratio (pull-down/input)
GATGATTGTTCTCCCAGCTGATGAATTTCACGCTTCGAGTAAACAAATTTTCCTAATCTTTCTGTTCAAGCGCCATCTAC	0.901 RPM ratio (pull-down/input)
GATGATTGTTCTCCCAGCTGATGAATTACGTGAATCGAGTAAACAAATTTTCCTAATCTTTCTGTTCAAGCGCCATCTAC	1.11 RPM ratio (pull-down/input)
GATGATTGTTCTCCCAGCTGATGAATTAGCATAATCGAGTAAACAAATTTTCCTAATCTTTCTGTTCAAGCGCCATCTAC	1.18 RPM ratio (pull-down/input)
GATGATTGTTCTCCCAGCTGATGAATTGTAAATATCGAGTAAACAAATTTTCCTAATCTTTCTGTTCAAGCGCCATCTAC	2.72 RPM ratio (pull-down/input)
GATGATTGTTCTCCCAGCTGATGAATTTGCAAGTTCGAGTAAACAAATTTTCCTAATCTTTCTGTTCAAGCGCCATCTAC	1.01 RPM ratio (pull-down/input)
GATGATTGTTCTCCCAGCTGATGAATTAATTGGGTCGAGTAAACAAATTTTCCTAATCTTTCTGTTCAAGCGCCATCTAC	0.951 RPM ratio (pull-down/input)
GATGATTGTTCTCCCAGCTGATGAATTGCAGAGGTCGAGTAAACAAATTTTCCTAATCTTTCTGTTCAAGCGCCATCTAC	0.92 RPM ratio (pull-down/input)
GATGATTGTTCTCCCAGCTGATGAATTAGTATGGTCGAGTAAACAAATTTTCCTAATCTTTCTGTTCAAGCGCCATCTAC	1.01 RPM ratio (pull-down/input)
GATGATTGTTCTCCCAGCTGATGAATTCTACACGTCGAGTAAACAAATTTTCCTAATCTTTCTGTTCAAGCGCCATCTAC	0.923 RPM ratio (pull-down/input)
GATGATTGTTCTCCCAGCTGATGAATTAGTGAACTCGAGTAAACAAATTTTCCTAATCTTTCTGTTCAAGCGCCATCTAC	0.879 RPM ratio (pull-down/input)
GATGATTGTTCTCCCAGCTGATGAATTTGCCAGTTCGAGTAAACAAATTTTCCTAATCTTTCTGTTCAAGCGCCATCTAC	0.977 RPM ratio (pull-down/input)
GATGATTGTTCTCCCAGCTGATGAATTAATCACATCGAGTAAACAAATTTTCCTAATCTTTCTGTTCAAGCGCCATCTAC	1.3 RPM ratio (pull-down/input)
GATGATTGTTCTCCCAGCTGATGAATTTGTGGCGTCGAGTAAACAAATTTTCCTAATCTTTCTGTTCAAGCGCCATCTAC	1.17 RPM ratio (pull-down/input)
GATGATTGTTCTCCCAGCTGATGAATTTTATCCCTCGAGTAAACAAATTTTCCTAATCTTTCTGTTCAAGCGCCATCTAC	0.949 RPM ratio (pull-down/input)
GATGATTGTTCTCCCAGCTGATGAATTGTCTCGTTCGAGTAAACAAATTTTCCTAATCTTTCTGTTCAAGCGCCATCTAC	0.908 RPM ratio (pull-down/input)
GATGATTGTTCTCCCAGCTGATGAATTCCTGCTGTCGAGTAAACAAATTTTCCTAATCTTTCTGTTCAAGCGCCATCTAC	1.13 RPM ratio (pull-down/input)
GATGATTGTTCTCCCAGCTGATGAATTGCTAATTTCGAGTAAACAAATTTTCCTAATCTTTCTGTTCAAGCGCCATCTAC	1.35 RPM ratio (pull-down/input)
GATGATTGTTCTCCCAGCTGATGAATTCTCGTGTTCGAGTAAACAAATTTTCCTAATCTTTCTGTTCAAGCGCCATCTAC	0.906 RPM ratio (pull-down/input)
GATGATTGTTCTCCCAGCTGATGAATTTCCTCAATCGAGTAAACAAATTTTCCTAATCTTTCTGTTCAAGCGCCATCTAC	0.921 RPM ratio (pull-down/input)
GATGATTGTTCTCCCAGCTGATGAATTCCGATCATCGAGTAAACAAATTTTCCTAATCTTTCTGTTCAAGCGCCATCTAC	0.875 RPM ratio (pull-down/input)

Sequence	binding signal
GATGATTGTTCTCCCAGCTGATGAATTGGTTGATTCGAGTAAACAAATTTTCCTAATCTTTCTGTTCAAGCGCCATCTAC	1.07 RPM ratio (pull-down/input)
GATGATTGTTCTCCCAGCTGATGAATTGGGGACGTCGAGTAAACAAATTTTCCTAATCTTTCTGTTCAAGCGCCATCTAC	0.865 RPM ratio (pull-down/input)
GATGATTGTTCTCCCAGCTGATGAATTTGGATTGTCGAGTAAACAAATTTTCCTAATCTTTCTGTTCAAGCGCCATCTAC	1.02 RPM ratio (pull-down/input)
GATGATTGTTCTCCCAGCTGATGAATTTCCTTGCTCGAGTAAACAAATTTTCCTAATCTTTCTGTTCAAGCGCCATCTAC	0.803 RPM ratio (pull-down/input)
GATGATTGTTCTCCCAGCTGATGAATTGACTTACTCGAGTAAACAAATTTTCCTAATCTTTCTGTTCAAGCGCCATCTAC	1.07 RPM ratio (pull-down/input)
GATGATTGTTCTCCCAGCTGATGAATTCTTAGTGTCGAGTAAACAAATTTTCCTAATCTTTCTGTTCAAGCGCCATCTAC	0.919 RPM ratio (pull-down/input)
GATGATTGTTCTCCCAGCTGATGAATTGTCGTCATCGAGTAAACAAATTTTCCTAATCTTTCTGTTCAAGCGCCATCTAC	1.23 RPM ratio (pull-down/input)
GATGATTGTTCTCCCAGCTGATGAATTTCTGCACTCGAGTAAACAAATTTTCCTAATCTTTCTGTTCAAGCGCCATCTAC	0.936 RPM ratio (pull-down/input)
GATGATTGTTCTCCCAGCTGATGAATTGTTATTTTCGAGTAAACAAATTTTCCTAATCTTTCTGTTCAAGCGCCATCTAC	3.47 RPM ratio (pull-down/input)
GATGATTGTTCTCCCAGCTGATGAATTGAGTACATCGAGTAAACAAATTTTCCTAATCTTTCTGTTCAAGCGCCATCTAC	1.05 RPM ratio (pull-down/input)
GATGATTGTTCTCCCAGCTGATGAATTGGCATCCTCGAGTAAACAAATTTTCCTAATCTTTCTGTTCAAGCGCCATCTAC	1.13 RPM ratio (pull-down/input)
GATGATTGTTCTCCCAGCTGATGAATTGGGGAATTCGAGTAAACAAATTTTCCTAATCTTTCTGTTCAAGCGCCATCTAC	0.883 RPM ratio (pull-down/input)
GATGATTGTTCTCCCAGCTGATGAATTCAGAGTCTCGAGTAAACAAATTTTCCTAATCTTTCTGTTCAAGCGCCATCTAC	0.756 RPM ratio (pull-down/input)
GATGATTGTTCTCCCAGCTGATGAATTACCTTACTCGAGTAAACAAATTTTCCTAATCTTTCTGTTCAAGCGCCATCTAC	0.996 RPM ratio (pull-down/input)
GATGATTGTTCTCCCAGCTGATGAATTTGTTAGTTCGAGTAAACAAATTTTCCTAATCTTTCTGTTCAAGCGCCATCTAC	1.78 RPM ratio (pull-down/input)
GATGATTGTTCTCCCAGCTGATGAATTACACCGCTCGAGTAAACAAATTTTCCTAATCTTTCTGTTCAAGCGCCATCTAC	1 RPM ratio (pull-down/input)
GATGATTGTTCTCCCAGCTGATGAATTTACGTTATCGAGTAAACAAATTTTCCTAATCTTTCTGTTCAAGCGCCATCTAC	1.44 RPM ratio (pull-down/input)
GATGATTGTTCTCCCAGCTGATGAATTGGCGAAGTCGAGTAAACAAATTTTCCTAATCTTTCTGTTCAAGCGCCATCTAC	0.806 RPM ratio (pull-down/input)
GATGATTGTTCTCCCAGCTGATGAATTGTAGCCTTCGAGTAAACAAATTTTCCTAATCTTTCTGTTCAAGCGCCATCTAC	0.968 RPM ratio (pull-down/input)
GATGATTGTTCTCCCAGCTGATGAATTAGCTCACTCGAGTAAACAAATTTTCCTAATCTTTCTGTTCAAGCGCCATCTAC	0.816 RPM ratio (pull-down/input)
GATGATTGTTCTCCCAGCTGATGAATTTCCCGGCTCGAGTAAACAAATTTTCCTAATCTTTCTGTTCAAGCGCCATCTAC	0.708 RPM ratio (pull-down/input)
